Results from article PMC4336329 (PLoS ONE, 2015).
Hit rate of the full screen: of about 310,000 compounds, about 14,000 (4.5%) showed an effect of 50% or more. The effect is printed as a negative number. This is one part of the list.

Target: human ether-à-go-go-related gene (hERG) potassium channel (human, UniProt Q12809)
Experiment: primary screen, population patch clamp on CHO cells stably expressing hERG
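Note: peak tail current of the secondary pulse compared with the same well before compound.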

Sequence of human ether-à-go-go-related gene (hERG) potassium channel (Q12809 whole entry, looked up): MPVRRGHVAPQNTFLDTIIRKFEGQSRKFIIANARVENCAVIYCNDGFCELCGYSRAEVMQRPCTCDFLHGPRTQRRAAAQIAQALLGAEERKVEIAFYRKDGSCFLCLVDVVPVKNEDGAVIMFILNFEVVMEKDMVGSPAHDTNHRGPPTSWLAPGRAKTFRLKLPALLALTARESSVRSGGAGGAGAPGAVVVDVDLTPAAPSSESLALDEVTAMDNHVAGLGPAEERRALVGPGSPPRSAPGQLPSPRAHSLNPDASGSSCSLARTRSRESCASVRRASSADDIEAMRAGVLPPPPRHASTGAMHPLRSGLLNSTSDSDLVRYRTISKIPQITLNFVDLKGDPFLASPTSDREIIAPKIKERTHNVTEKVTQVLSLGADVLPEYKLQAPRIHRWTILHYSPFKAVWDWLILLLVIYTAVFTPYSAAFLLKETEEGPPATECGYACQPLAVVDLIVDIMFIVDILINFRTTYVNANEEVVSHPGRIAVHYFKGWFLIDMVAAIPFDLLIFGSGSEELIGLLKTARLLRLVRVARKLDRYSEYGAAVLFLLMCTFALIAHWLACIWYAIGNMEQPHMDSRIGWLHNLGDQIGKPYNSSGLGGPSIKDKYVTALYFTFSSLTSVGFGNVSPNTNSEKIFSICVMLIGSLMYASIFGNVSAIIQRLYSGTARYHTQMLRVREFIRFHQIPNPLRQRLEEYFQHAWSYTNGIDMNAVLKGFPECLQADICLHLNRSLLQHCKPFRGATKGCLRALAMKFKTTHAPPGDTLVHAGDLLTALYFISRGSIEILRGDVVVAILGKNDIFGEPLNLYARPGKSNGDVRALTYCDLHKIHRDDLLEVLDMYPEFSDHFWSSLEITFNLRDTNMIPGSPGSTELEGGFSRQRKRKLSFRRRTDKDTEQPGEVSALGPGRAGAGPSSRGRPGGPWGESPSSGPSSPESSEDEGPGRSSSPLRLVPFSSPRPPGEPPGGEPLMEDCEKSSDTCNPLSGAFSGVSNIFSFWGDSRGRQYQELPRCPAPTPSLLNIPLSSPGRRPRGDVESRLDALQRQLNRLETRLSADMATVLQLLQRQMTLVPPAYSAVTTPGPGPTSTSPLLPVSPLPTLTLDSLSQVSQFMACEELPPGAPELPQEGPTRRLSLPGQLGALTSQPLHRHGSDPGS

SMILES | hERG current change (%, negative = inhibition) at 10uM [%]
COCCn1cnnc1SCC(=O)Nc1sccc1C(N)=O | -2.66
O=C(/C=C/c1ccc(N2CCCCC2)c([N+](=O)[O-])c1)c1ccc(S(=O)(=O)N2CCCC2)cc1 | 10.3
CC1CCC2(CC1)NC(=O)N(CC(=O)c1cccn1C)C2=O (stereo not shown) | -3.51
O=C(O)Cn1nnc(COc2ccccc2)n1 | 12.2
Cc1cc([N+](=O)[O-])nn1CCCC(=O)Nc1cccc(Cl)c1Cl | 0.71
NS(=O)(=O)c1ccc(CCNC(=O)c2cc([N+](=O)[O-])ccc2N2CCOCC2)cc1 | -15.2
CCN(CC)C(=O)CC(c1cc(OC)c(OC)c(OC)c1)c1c(OC)cc(OC)c2ccc(=O)oc12 (stereo not shown) | 4.5
Cc1ccc(NC(=O)Cn2c(=O)n(Cc3ccco3)c(=O)c3ccccc32)c(C)c1 | -9.09
CC(C)(C)c1ccc(-c2nnc(N)s2)cc1 | 6.02
COC(=O)C1CCN(S(=O)(=O)CCNC(=O)c2ccc3c(c2)OCO3)CC1 | 3.6
O=C(NCc1cnc2ccccn12)C1CCC(=O)N(Cc2cccc(F)c2)C1 (stereo not shown) | 19.6
CC(C)CC(=O)N1CCN(Cc2ccccc2[N+](=O)[O-])CC1.O=C(O)C(=O)O | -7.35
CSc1ccccc1NC(=O)COc1ccc(S(=O)(=O)N2CCCC2)cc1 | -10.4
CCOc1ccc(CN(C)CC(=O)NCc2ccccc2Cl)cc1 | -89.1
CCN(CC(=O)Nc1ccc(C(=O)Nc2ccc(OC)cc2)cc1)Cc1nc2ccccc2c(=O)[nH]1 | 5.15
C/C(=N\N=C(N)N)c1cccc([N+](=O)[O-])c1 | -32.1
O=C(NCCC1=CCCCC1)c1c(O)nc2ccccn2c1=O | 0.215
COc1cccc(CNC(=O)c2cc(COc3c(F)cccc3F)on2)c1 | -1.04
CCOc1cc(/C=C2/C(=O)ON=C2C)ccc1OCc1ccc(F)cc1 | 7.07
Cc1[nH]nc2ncc(C(=O)c3cc(Cl)cc(Cl)c3O)cc12 | 9.79
Cc1cc(S(=O)(=O)NCCc2ccncc2)cc(C)c1F | 2.81
CCOC(=O)C1CCN(C(=O)C(CCSC)NC(=O)c2ccccc2OC)CC1 (stereo not shown) | -16.2
CCCCn1c(N)c(N(CCOC)C(=O)c2ccc(-c3ccccc3)cc2)c(=O)[nH]c1=O | 4.65
COc1ccc(N(Cc2cc3cc(C)ccc3[nH]c2=O)C(C)=O)cc1 | 11.2
CCOc1ccc(C2=C(C=Nc3c(C)n(C)n(-c4ccccc4)c3=O)C(c3ccc(F)cc3)c3ccccc3O2)cc1 (stereo not shown) | 4.04
O=C(Cn1cnc2ccc(Cl)cc2c1=O)c1cccs1 | 4.78
CC(=O)Nc1ccc(SCc2c(C)noc2C)cc1 | 3.5
COC(=O)c1c(C(=O)OC)c(-c2cccc(C)c2)n2c1CS(=O)(=O)C2 | -22.4

SMILES | hERG current change (%, negative = inhibition) at 10uM [%]
N#CC1=C(N)NC(SCC(=O)c2ccc(Cl)cc2)=C(C#N)C12CCCC2 | -20.6
CCNC(=O)C(=O)NCC1OCCCN1S(=O)(=O)c1ccc(F)cc1C (stereo not shown) | -1.08
C=CCn1c(SCC(=O)c2c(N)n(CCC)c(=O)n(C)c2=O)nc2sc(CC)cc2c1=O | 10
O=C(NCc1ccccc1F)C1CCC(=O)N(Cc2ccc(Cl)cc2)C1 (stereo not shown) | -42.1
CCn1c(-c2c(Cl)c(C)nn2C)n[nH]c1=S | 10.9
Cc1ccccc1OCCC(=O)OCC(=O)NC(C)c1ccccc1 (stereo not shown) | -28
O=C(O)c1cccc(NC(=O)C23CC4CC(C2)CC(n2cnc(Cl)n2)(C4)C3)c1 | 6.02
COC(=O)c1cc2occc2n1CC(=O)Nc1ccc(OC)c(OC)c1 | 4.76
Cc1ccc(NC(=O)CN(C)C(=O)CSc2nc(C)cs2)cc1 | 2.57
COCC(C)n1c(C)cc(C(=O)Cn2nc(C(=O)O)c3ccccc3c2=O)c1C (stereo not shown) | 13.8
CC1(C)C2CC=C(/C=N/NC(=O)C3CC3)C1C2 (stereo not shown) | 20.2
CCn1ncc(Br)c1C(=O)Nc1ccc(F)cc1F | 0.93
Cc1cc(CN2CCC(n3nccc3NC(=O)c3ccccc3Cl)CC2)cc(C)c1O | -74.2
Cc1csc(CCc2nc(C)cs2)n1 | 9.29
CC(=O)Nc1ccc(NC(=O)CSc2nnc(NC(=O)c3cccc(F)c3)s2)cc1 | 20.2
Cc1nc(-c2ccccc2Cl)sc1C(=O)/C=C/N(C)C | 14.4
O=C(O)CCC(=O)N(Cc1cccs1)Cc1cccs1 | -2.07
NC(=O)c1ccc(NC(=O)CCN2C(=O)c3ccccc3C2=O)cc1 | 16
COC(=O)c1ccc2c(=O)n(CCCN3CCCC3=O)c(=S)[nH]c2c1 | -5.1
Cc1cc2c(cc1S(=O)(=O)Nc1c(C)cccc1C)n(C)c(=O)c(=O)n2C | -0.831
C=C(C)CN1CC[C@]23c4c5ccc(O)c4O[C@H]2c2[nH]c4ccccc4c2C[C@@]3(O)C1C5.Cl.O | 4.9
O=C1COCCOCCOCC(=O)NCCN1 | 23.4
COc1ccc(CCNC(=O)CSc2cn(Cc3ccccc3)c3ccccc23)cc1OC | 3.04
Cc1csc(NC(=O)c2sc3nc(-c4cccs4)ccc3c2N)n1 | 5.65
Cc1cc(S(=O)(=O)n2cnc3cc([N+](=O)[O-])ccc32)ccc1Cl | -2.69
O=C(Nc1ccc2c(c1)OCO2)C1CCCN1C(=O)OCc1ccccc1 (stereo not shown) | -0.907
COc1ccc(CCNC(=O)C2CCCN2C(=O)Nc2cccc(OC)c2)cc1 (stereo not shown) | 10.9
